# Experimental data taken from PubChem BioAssay (NCATS).
# This list was built around the results that the source calls inconclusive (neither active nor inactive); the mix of calls is not that of the screen. Potencies beside an inconclusive call are fits to weak or partial responses and may not hold up. Active and inactive are the calls of the source. The call rests on the fitted dose curve; in most records, active means well fitted cell-killing curve with a large enough effect; inconclusive means small, poorly fitted or top-dose-only effect, or effect the other way; inactive means no such curve, though single readings can be large or run the other way.
# Experiments:
# [1] = Viability qHTS for spleen associated tyrosine kinase inhibitor (SYKi) naive MV4-11 cells (AID 1963823); conditions: MV4-11 AML viability, CellTiter-Glo luminescence, 72 h; series mostly up to 45 µM; further: nearly all actives have a fitted effect of over 40% in size
# Procedure, shortened: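 SYKi-naive MV4-11 AML cells, 500 per well, were exposed to library compounds for 72 hr at 37 C, 5% CO2. Viability was then read by CellTiter-Glo luminescence after 10 min at room temperature.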
# [2] = Viability qHTS for spleen associated tyrosine kinase inhibitor (SYKi) drug resistant MV4-11 cells (AID 1963824); further: nearly all actives have a fitted effect of over 35% in size
# Procedure, shortened: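 SYK-inhibitor-resistant MV4-11 AML cells were seeded at 500 per well onto compound and cultured 72 hours (37 °C, 5% CO2). CellTiter-Glo was then added, and after 10 min at room temperature, luminescence gave viability.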
# Potency means the concentration at half of the fitted maximal effect; tags describe the fitted curve by direction and shape.
Structure (SMILES),Potency [1],Potency [2]
COC(=O)CCCCC(CCSS/C(CCO)=C(\C)N(C=O)Cc1cnc(C)nc1N)SC(C)=O (configuration not stated),inactive,"inconclusive: 4.22 µM [cytotoxic, full curve, poor fit]"
CC(=O)OC/C(=C/C(=O)O)CC[C@@H]1C(C=O)=CC[C@@H]2C(C)(C)CCC[C@@]12C,"inconclusive: 20.2 µM [cytotoxic, single point]","inconclusive: 11.4 µM [cytotoxic, single point]"
O=C(O)c1cc(C(F)(F)F)ccc1N1CC[C@H](OCc2ccccn2)C1,"inconclusive: 10.3 µM [cytotoxic, partial curve, poor fit]","inconclusive: 4.11 µM [cytotoxic, single point]"
CCCCOC(=O)NC(=O)C1c2ccccc2Oc2ccccc21,inactive,inactive
C=C1C(=O)O[C@@H]2[C@H]3C(C)=CC(=O)C3=C(C)CC[C@@H]12,active: 2.06 µM,active: 0.651 µM
COc1ccc2cc(CCC(C)=O)ccc2c1,"inconclusive: 0.841 µM [rising, partial curve]","inconclusive: 0.0211 µM [rising, full curve, poor fit]"
CC(C)/C=C1/NC(=O)C(C(C)C)n2c1nc1c(O)cccc1c2=O (configuration not stated),"inconclusive: 11.4 µM [cytotoxic, single point]","inconclusive: 9.04 µM [cytotoxic, partial curve, poor fit]"
C=C[C@H]1[C@H](O[C@@H]2O[C@H](CO)[C@@H](O)[C@H](O)[C@H]2O)OC=C2C(=O)N3Cc4c([nH]c5ccccc5c4=O)[C@@H]3C[C@H]21,inactive,inactive
CCCNC(=O)NS(=O)(=O)c1ccc(Cl)cc1,"inconclusive: 7.31 µM [cytotoxic, partial curve, poor fit]",inactive
Cn1cc(C(=O)[C@@H]2CCc3nc[nH]c3C2)c2ccccc21,"inconclusive: 6.68 µM [cytotoxic, partial curve, poor fit]","inconclusive: 33.5 µM [cytotoxic, single point]"
O=C(CCc1ccccc1)N1CCC(O)(Cn2cnc3cc(Cl)ccc3c2=O)CC1,"inconclusive: 14.6 µM [cytotoxic, partial curve]","inconclusive: 18.4 µM [cytotoxic, partial curve]"
O=C(CN1C(=O)C2(CCCC2)NCC1c1cc(F)cc(F)c1)Nc1ccc2c(c1)CC1(C2)C(=O)Nc2ncccc21 (configuration not stated),"inconclusive: 10.3 µM [cytotoxic, partial curve, poor fit]","inconclusive: 23.1 µM [cytotoxic, single point]"
NCC(CNc1nc(Nc2cccc(NC(=O)N3CCCC3)c2)ncc1I)C(=O)c1cccs1 (configuration not stated),"inconclusive: 0.116 µM [cytotoxic, full curve]",active: 0.231 µM
CCN(CC)C(=O)c1cccc(C)c1,inactive,inactive
COc1ccc2cc(C=O)ccc2c1,"inconclusive: 21.1 µM [cytotoxic, partial curve, poor fit]",inactive
Cc1nc2ccc(Oc3ccc(F)cc3)cc2c(=O)n1C[C@H]1CCCN(C(C)C)C1,"inconclusive: 23.1 µM [cytotoxic, single point]","inconclusive: 20.6 µM [cytotoxic, partial curve]"
C=C1CC[C@H]2[C@@](C)(CCC(O)[C@@]2(C)CO)[C@@H]1C/C=C(/C(=O)O)C(O)CO (some centres not stated),"inconclusive: 8.05 µM [cytotoxic, partial curve]","inconclusive: 9.04 µM [cytotoxic, partial curve]"
CC(=O)OCC1=CCC2C(C)(C)CCCC2(C)C12CCC(C)(CC(=O)O)O2 (configuration not stated),"inconclusive: 16.1 µM [cytotoxic, single point]","inconclusive: 16.1 µM [cytotoxic, partial curve, poor fit]"
CC(C)C[C@H](NC(=O)[C@@H]1O[C@H]1C(=O)O)C(=O)NCCCCN=C(N)N,inactive,inactive
COc1ccc([C@@]2(O)c3c(ccc4c3OC(C)(CCC=C(C)C)C=C4)NC(=O)[C@@H]2OC)cc1 (some centres not stated),"inconclusive: 0.1 µM [cytotoxic, full curve, poor fit]",inactive
Cc1ccccc1C(C(=O)NC1CCCCC1)N(C(=O)Cn1cnc2ccccc21)c1cccc(F)c1 (configuration not stated),"inconclusive: 20.6 µM [cytotoxic, partial curve]","inconclusive: 18.4 µM [cytotoxic, partial curve]"
